The source gives no read counts; variants with many changes may rest on few reads.
B1: LINE1-mini (parent)
chain: GGCAGAGCUCAACACAGCGUGGCAAAGUGGCUGUGGCUAGACUGCC

Variants of: B1
Experiment: self-cleavage, relative activity (ratio to wild type); higher = more cleavage; in vitro, sequencing; the parent is a self-cleaving ribozyme
Variant A6U C8U U28G U34A C37A has a self-cleavage of 0.02. Work on A12G C18A G19C C46U yielded a self-cleavage of 0.03. Work on G2U C10A G21A yielded a self-cleavage of 0.03. With A11C G36A U43A the self-cleavage was 0. Variant G1A A11C G19A U20G has a self-cleavage of 0. In the case of G5C G7U C18U, the self-cleavage is reported as 0.1. For A16G G19C G21C C23A, the self-cleavage was 0.13. In the case of G7A A26G G44A, the self-cleavage is reported as 0.19. Work on A11C C13U G35C G44A yielded a self-cleavage of 0. Work on G1C U34C U38C C46U yielded a self-cleavage of 0.04. A25C G27A C46A showed a self-cleavage of 0.26. In the case of C10A A11U G35U G36C, the self-cleavage is reported as 0.04. G1U A4G G29U G33U U38G showed a self-cleavage of 0.06. With U9A A14U C15A G17C C23G A24C the self-cleavage was 0.06. Variant C3U G5A C45U has a self-cleavage of 0.12. For G29U U32A U34A, the self-cleavage was 0.01. For G19U G30U U32C, the self-cleavage was 0.23. A4U C8G G29A showed a self-cleavage of 0.05. Variant G1A G2U C42A has a self-cleavage of 0.07. Work on G1A G2U C42U yielded a self-cleavage of 0.16. G2C C31A A39C C45A gave a self-cleavage of 0.08. In the case of G17A U20G C46U, the self-cleavage is reported as 0.04. In the case of C3U A12U G19U, the self-cleavage is reported as 0.18. For A12C C13G A16C G22U, the self-cleavage was 0.02. Work on C3G C8G A16U G19U A25U yielded a self-cleavage of 0.06. G7C A25U G40U showed a self-cleavage of 0.18. Work on A4C G7U C18U yielded a self-cleavage of 0.12. With G1C U20C G30U the self-cleavage was 0.12. In the case of C3U C15A G40A C46A, the self-cleavage is reported as 0.08. G1A A6C G21A showed a self-cleavage of 0.91. G2C C3A C10U A11U gave a self-cleavage of 0.01. With C15G G19A G44A the self-cleavage was 0.08. C31U U32G G36U C46A gave a self-cleavage of 0.02. For G21U G27U C46A, the self-cleavage was 0.11. For G2U A14C G22C U32G A41G, the self-cleavage was 0.02. For G7U C10U G19A, the self-cleavage was 0.02. In the case of C13U C15G U28G, the self-cleavage is reported as 0.14. For U9A A26C G40U, the self-cleavage was 0.02. Work on G1A G21C G22C yielded a self-cleavage of 0.32. G2U C8U G29U G36U gave a self-cleavage of 0.04. G1A U34A A41G showed a self-cleavage of 0.03. For A24U A26G U38G, the self-cleavage was 0.02. For G2C A16C C37U, the self-cleavage was 0.28. For C10U C13U G21C, the self-cleavage was 0.02. With C23A U32A G40U the self-cleavage was 0.12. G2A A11G C15U showed a self-cleavage of 0.05. G1A G5A G22C A39C showed a self-cleavage of 0.2. A11C G17U C18U G22U G30U G33A showed a self-cleavage of 0.02. With A11U G19U G21C G27C the self-cleavage was 0.02. For C10U G17A C23U G33U, the self-cleavage was 0.02. A6G G17A C31G gave a self-cleavage of 0.02. With C3A G7U G40U the self-cleavage was 0.07. In the case of G17U A25C A26C G35A, the self-cleavage is reported as 0.08. In the case of A11C A16G C46A, the self-cleavage is reported as 0.05. In the case of A14C A16U G19U G33C, the self-cleavage is reported as 0.99. In the case of A4C U9C U28C, the self-cleavage is reported as 0.01. C8U G19C G40U C42U showed a self-cleavage of 0.2. In the case of G5A C13A A25U U32A, the self-cleavage is reported as 0.04. With G1C G17C A26U U34C the self-cleavage was 0.02. With A12U A16G G27U the self-cleavage was 0.45. Variant G7A A16G U34A has a self-cleavage of 0.01. For G2C C8U A14G G21U U28C U38A A41U C46G, the self-cleavage was 0.08. For C18A A26G G29U, the self-cleavage was 0.52. For C10A A12C A14U A24G, the self-cleavage was 0.01. For G1C A11C U43A, the self-cleavage was 0.01. C3A C10A A25G showed a self-cleavage of 0.04. For G27A C31A G35A G44U, the self-cleavage was 0.03. For C31U C37G G40U A41G, the self-cleavage was 0.02. G19U G27A G29A A39U showed a self-cleavage of 0.26. In the case of A6C C10A A12U U34A, the self-cleavage is reported as 0.02. Work on G1C C3U A24C G44U yielded a self-cleavage of 0.01. C3U U32G G40C gave a self-cleavage of 0.03. C8A U32C A41U showed a self-cleavage of 0.2. Variant C3G A39U C46U has a self-cleavage of 0.14. Variant G2C C3G U32C U34C has a self-cleavage of 0.04. In the case of C18U G21A G36U, the self-cleavage is reported as 0.06. C10G A14C G19A G35C G36A showed a self-cleavage of 0. Work on C3A U34G G35U A39U yielded a self-cleavage of 0.1. A6U G27C G33U showed a self-cleavage of 0.03. Work on C3U C13G A14G yielded a self-cleavage of 0.07. Variant C3U C10G A24U A39U A41U has a self-cleavage of 0.06. G5C G17C A26G showed a self-cleavage of 0.03. For G2U C15U C42U, the self-cleavage was 0.06. For G5A G36U C37A, the self-cleavage was 0.11. Variant G2A A12C A14G G35A C37G has a self-cleavage of 0.02. For G7A A12U G17U A39C, the self-cleavage was 0.08. C3G G5U U28C C42A gave a self-cleavage of 0.23. With G2A A14C G17U G19A the self-cleavage was 0.24. For C23G G35A G36C, the self-cleavage was 0.17. Variant C3A C15U G17A G21U has a self-cleavage of 0.07. Variant C13G A14C A16G G27C C42A has a self-cleavage of 0.02. G1A G19A G40U C42U showed a self-cleavage of 0.06. For C3A G5C C10U A11G C23U, the self-cleavage was 0.02. C10U A16C U32C U43A C46U gave a self-cleavage of 0.01. In the case of C13G A24G G30A, the self-cleavage is reported as 0.04. With C23A G44C C46U the self-cleavage was 0.17. Work on A4G A14G G17U G21U G35U yielded a self-cleavage of 0.09. For A14U U28G C31G, the self-cleavage was 0.02. For G1C A16U C18G G27U, the self-cleavage was 0.04. With A12U C13A G30A the self-cleavage was 0.2. With G7U C10U G21U G35C the self-cleavage was 0.03. With C3U U20A G21U U38A C46A the self-cleavage was 0.09. With C23G A26G C46G the self-cleavage was 0.92. For A6G G40C A41G, the self-cleavage was 0.03. Work on G22U C23A C42A yielded a self-cleavage of 0.05. C3A G7C G30C gave a self-cleavage of 0.07. With G2C C3U G17A C31A U43G C46G the self-cleavage was 0.01. U9C G17U G21U A41U showed a self-cleavage of 0. With G7U G19U G29U G30U the self-cleavage was 0.75. For C3A A25U G30A C42U, the self-cleavage was 0.18. For G1U A6U C8A A14G, the self-cleavage was 0.19. Work on U9A G22U A26C A41G yielded a self-cleavage of 0.1. U9C A11C G17C U20A G36A G44A gave a self-cleavage of 0.01. Work on C8A U9A A24U G35U G40A yielded a self-cleavage of 0.22. In the case of A6U A41G C46G, the self-cleavage is reported as 1.58. Variant U9A A14U U32G C37U has a self-cleavage of 0.03. A4C U34A G35A A39C gave a self-cleavage of 0. For A16C G29A U34C G36A G40A C42G, the self-cleavage was 0.05. With G36A A41C C45U the self-cleavage was 0. C15U C37G G44U C45A showed a self-cleavage of 0.06. With C10U C23U G27C the self-cleavage was 0.2. Work on G33A G36C C37U yielded a self-cleavage of 0.28. A4G G5A G7C G30C G35C A41G gave a self-cleavage of 0.08. For A4G G27A U28C U43A, the self-cleavage was 0.06. G19C U32A G35C C46U gave a self-cleavage of 0.42. With G5U C10A C15A the self-cleavage was 0.05. G1C G7C A12G U28A gave a self-cleavage of 0.01. Variant G7A U28G G30A C31U C46G has a self-cleavage of 0.02. In the case of G2U G33C G40C, the self-cleavage is reported as 0.01. For C3U C10U A11C, the self-cleavage was 0.03. Work on A4G G5C A41U yielded a self-cleavage of 0.14. With C10A C15U A16G U32C the self-cleavage was 0.02. A4C G5C U20G U28A gave a self-cleavage of 0.01. For C18G G19A C23U C42A, the self-cleavage was 0.02. For U9C G30A G33A G36A A39U, the self-cleavage was 0.02. In the case of G1U C37G A39C G40U, the self-cleavage is reported as 0.01. Work on A6G A39G U43C C45G yielded a self-cleavage of 0.02. With C3A G44U C45A the self-cleavage was 0.5. Variant C8A G17A C18U U28G has a self-cleavage of 0.1. In the case of G1U A26C A39G, the self-cleavage is reported as 0.01. A12C A24C C42A showed a self-cleavage of 0.01. U9G A16U U20C showed a self-cleavage of 0.02. In the case of C3G A11G C15U G27A, the self-cleavage is reported as 0.09. C15G G17U G36U showed a self-cleavage of 0.13. In the case of G1C G7C G21C U32C, the self-cleavage is reported as 0.02. Variant G2U A12U A14C G29U U43A has a self-cleavage of 0.01. In the case of A6C A16G G36A, the self-cleavage is reported as 1.09. In the case of G2U G5U U38A, the self-cleavage is reported as 0.02. Work on C10U U20C G40U yielded a self-cleavage of 0.04. Work on G1C A16C G33A yielded a self-cleavage of 0. In the case of C10A G33U U38G, the self-cleavage is reported as 0. For G2C A12U A26G G36U C46A, the self-cleavage was 0.04. A12G U34C C37U U38G showed a self-cleavage of 0.01. For G1U A16C G35U C42G, the self-cleavage was 0.03. For U34A A41U C46A, the self-cleavage was 0.04. Work on C8A A16U A39C yielded a self-cleavage of 0.09. In the case of G1C C10A A14U A26U U28A C37U, the self-cleavage is reported as 0.01. G5A G7A C42G gave a self-cleavage of 0.02. Work on C10U C18A G33A yielded a self-cleavage of 0.01. For U9A G27U G36U, the self-cleavage was 0.19. Variant U9G C10U C13G U38G G44C has a self-cleavage of 0.02. For G7A C23A C31G C46A, the self-cleavage was 0.04. C10G C18A U43C gave a self-cleavage of 0.01. Variant G21U U34C C42A has a self-cleavage of 0.22. G2A A4U G5C C18G A25C showed a self-cleavage of 0.17. C8U A24C A26G gave a self-cleavage of 0.39. C10A G21C G22U showed a self-cleavage of 0.07.

Source: the RNAGym collection of RNA variant scans (doi:10.7554/elife.90254)
